Data reported in PubChem BioAssay AID720647 (Broad Institute, 2013).
The whole screen tested about 380,000 compounds, of which about 1,300 (0.34%) were called active. Inconclusive means that the source gave no clear call. Such entries were picked first, then a sample of the others.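 The calls were made as follows: active = drop in luminescence signal, shown as inhibition above about 50% in the replicate tests (limit read from the data, passing the limit was not always enough); inconclusive = probably only some replicates passing the limit; inactive = the rest.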

What follows are compounds tested on Drosophila bursicon receptor LGR2 (rickets) (assay: inhibitors of bursicon-induced LGR2 CRE-luciferase signal, primary screen, cell-based, HEK293, CRE-luciferase reporter, bursicon stimulation (AID 720647;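 also: agonist challenge used bursicon conditioned medium at about half maximal strength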)). Conditions: bursicon-stimulated, 4 h, at 9.99 µM, hits give high values.

Row | SMILES | inhibition
1 | O=C1NN(c2ccc(Br)cc2)C(=O)/C1=C\c1ccc(O)cc1O | inactive: -0.263%
2 | N#C[C@@H]1[C@H](c2ccc(C#Cc3ccccc3F)cc2)[C@@H](CO)N1C(=O)C1CCCC1 | active: 66.1%
3 | Cc1ccccc1-c1cnc2c(c1)C(=O)N([C@H](C)CO)C[C@@H](C)[C@H](CN(C)Cc1cncnc1)O2 | inactive: 7.93%
4 | Cc1cc(C)c(C)c(OCCn2ccnc2)c1 | inactive: -11.7%
5 | Nn1cnnc1N/N=C/c1ccc(Cl)c([N+](=O)[O-])c1 | inconclusive: 52.2%
6 | COc1ccccc1CCn1cnc(-c2ccccc2OC)c1C(C)C | inconclusive: 54.4%
7 | O=C(CN1CCN(C(=O)CNC(=O)c2ccc(-c3ccccc3)cc2)CC1)Nc1ccccc1Cl | inconclusive: 54.7%
8 | CC(=NNC(=S)N1CC2CCC(CC2)C1)c1ccccn1 | inconclusive: 63.6%
9 | O=C(NCc1ccco1)c1cc(NS(=O)(=O)c2cccc([N+](=O)[O-])c2)ccc1O | inconclusive: 20.1%
10 | Cn1c(N=NC(=O)c2ccccc2)c(O)c2ccccc21 | inconclusive: 55.4%
11 | CC(=O)c1sc2c(c1OC(=O)c1ccccc1)c(=O)n(-c1ccccc1)c(=S)n2-c1ccccc1 | inconclusive: 59.5%
12 | CC(C)Nc1ncnc2c1cnn2-c1ccc(Cl)cc1 | inconclusive: 53.8%
13 | Cc1cc(N2CCC(C)CC2)n2ncc(-c3ccccc3)c2n1 | inconclusive: 41.4%
14 | C=CC(C)(C)c1c2occc2c(O)c2ccc(=O)oc12 | inactive: 3.14%
15 | COC(=O)C1C=CC(OC2OC(COC(C)=O)C(OC(C)=O)C(OC(C)=O)C2OC(C)=O)n2c(=O)n(-c3ccccc3)c(=O)n21 (stereo not given) | inconclusive: 24.3%
16 | O=C(C[C@@H]1CC[C@H]2[C@@H](COC[C@@H](O)CN2S(=O)(=O)c2ccc(Cl)cc2)O1)NCCN1CCCCC1 | inactive: -9.42%
17 | C[C@H]1CN([C@@H](C)CO)C(=O)c2cc(NS(C)(=O)=O)ccc2O[C@H]1CN(C)S(=O)(=O)c1ccc(Cl)cc1 | inactive: 7.22%
18 | COc1ccc(OC)c(C2(O)CSC(=Nc3cccnc3)N2Cc2ccco2)c1 (stereo not given) | inconclusive: 53.3%
19 | COC(=O)N(C)C[C@@H]1OCc2ccccc2-c2c(n(C)c3ccccc23)C(=O)N([C@H](C)CO)C[C@@H]1C | inactive: 9.8%
20 | O=C(O)c1ccc(N/N=C/c2ccc(OC(=O)c3cccc(Cl)c3)cc2)cc1 | active: 79.8%
21 | CCN1C(=O)c2ccc(C(=O)Nc3cccc(C(=O)O)c3)cc2C1=O | inconclusive: 59.8%
22 | C[C@H](CO)N1C[C@H](C)[C@H](CN(C)C(=O)Nc2cccc3ccccc23)OCCCC[C@H](C)Oc2ccc(NC(=O)C3CCCCC3)cc2C1=O | inconclusive: 16%
23 | COC(=O)C1=C(C)N(Cc2ccccc2)C(=NCC(C)C)N[C@H]1c1cccc(F)c1 | inactive: 13.5%
24 | N#C[C@H]1[C@H](c2ccccc2C2=CCCCC2)[C@@H](CO)N1S(=O)(=O)c1ccccc1 | active: 67.8%
25 | C[C@@H](NC(=O)C[C@@H]1C=C[C@@H](NC(=O)CN2CCOCC2)[C@@H](CO)O1)c1ccccc1 | inactive: -21.3%

Row | SMILES | inhibition
26 | CO[C@H]1CN(C)C(=O)c2cc(NC(C)=O)ccc2OC[C@H](C)N(Cc2ccc(F)cc2)C[C@H]1C | inactive: 5.92%
27 | Cc1ccc(/C=C2/C(=O)c3ccc(C(=O)O)cc3C2=O)o1 | inactive: 5.71%
28 | O=C(CC1CS(=O)(=O)CC1CC(=O)Nc1ccc2c(c1)OCCO2)Nc1ccc2c(c1)OCCO2 (stereo not given) | inconclusive: 49.5%
29 | C[C@H](CO)N1C[C@H](C)[C@H](CN(C)C(=O)Nc2ccc(F)cc2)OCCCC[C@H](C)Oc2ccc(NC(=O)Nc3ccccc3)cc2C1=O | active: 58.7%
30 | CC(=O)c1cccc(-c2csc3ncnc(Sc4nnnn4C)c23)c1 | inconclusive: 57.5%
31 | Cc1ccc(Nc2nc(NCCO)c3ccccc3n2)cc1C | inconclusive: 69%
32 | O=c1sc2ccccc2c(N2CCCC2)c1[N+](=O)[O-] | inconclusive: 57.5%
33 | Cc1cc(NC(=O)CSc2nnc(-c3ccco3)n2C)no1 | inactive: 7.86%
34 | Cc1ccc(-c2nc3ccc([N+](=O)[O-])cc3[nH]2)cc1 | active: 54.1%
35 | CCCCc1c(-c2ccccc2Br)ncn1CCc1ccccc1OC | inconclusive: 51.9%
36 | COC(=O)c1ccccc1NC1=C/C(=N\S(=O)(=O)c2cccs2)c2ccccc2C1=O | active: 90.9%
37 | COc1ccc(NC(=O)N(C)C[C@H]2OCCCC[C@H](C)Oc3ccc(NC(=O)NC(C)C)cc3C(=O)N([C@H](C)CO)C[C@@H]2C)cc1 | inactive: -7.18%
38 | N#C[C@@H]1[C@H](c2ccc(C#Cc3ccc(F)cc3)cc2)[C@@H](CO)N1C(=O)C1CCCC1 | inconclusive: 81.2%
39 | N/C(=N\OC(=O)c1cccc(F)c1)c1ccccn1 | inconclusive: 49.7%
40 | CCN(CC)c1ccc2nc3ccc(N)cc3[n+](-c3ccccc3)c2c1 | active: 58.6%
41 | CO[C@@H]1CN(C)C(=O)c2cc(NC(C)=O)ccc2OC[C@@H](C)N(Cc2ccc(F)cc2)C[C@@H]1C | inconclusive: 52.3%
42 | Cc1ccc(C(=O)NCCc2cccs2)cc1 | active: 75.4%
43 | Cc1ccc2c(c1)sc(=NC(=O)c1cccs1)n2C | active: 95.6%
44 | O=C(Nc1nc(-c2ccc(S(=O)(=O)N3CCOCC3)cc2)cs1)c1ccccc1 | inconclusive: 21%
45 | CN1CCN(CCCNC(=O)c2ccc(/C=C3/Sc4ccccc4N(Cc4cccc(Cl)c4)C3=O)cc2)CC1 | inconclusive: 57.7%
46 | COc1ccc(C(=O)Nc2nc3ccccc3c(=O)[nH]2)cc1 | inconclusive: 57.3%
47 | CC1=CN2C(=N)/C(=C/c3ccc([N+](=O)[O-])o3)C(=O)N=C2S1 | inconclusive: 105%
48 | CC(=O)C(C(C)=O)c1c(Cl)c(O)c(O)c2c(C(=O)c3ccccc3)coc12 | inconclusive: 58.9%
49 | NNC(=O)c1cccc(COc2ccc3c(c2)CCC3)c1 | inconclusive: 62.1%
50 | Cc1cc(NC(=O)/C=C/c2ccc(F)cc2)n(-c2nc3ccccc3[nH]2)n1 | inactive: 4.84%
